Publication PMC9911399, “Two distinct binding modes provide the RNA-binding protein RbFox with extraordinary sequence specificity”
Changes are numbered by the printed parent chain; changes in the protein carry UniProt numbers. This is one part of the list.

T1: RBFOX1 RRM RbFoxmut (Fox-RRM*) (Homo sapiens, UniProt Q9NWB1 109-208, R118D;E147R;N151S;E152T)
T1 sequence: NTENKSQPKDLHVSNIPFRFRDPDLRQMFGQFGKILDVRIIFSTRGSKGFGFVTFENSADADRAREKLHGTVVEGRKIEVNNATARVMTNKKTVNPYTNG

B1: UAGGCCC (DNA:RNA)
RNA: GGGAGACCGGAAUUCAGAUUGUCCUAGGCCCUUAAAUCCCGUCGUAGCCACCA
DNA 1: CAATCTGAATTCCGGTCTCCC
DNA 2: TGGTGGCTACGACGGGATT
B2: CGAAGCA (DNA:RNA)
RNA: B1 RNA with U25C, A26G, G27A, G28A, C29G, C31A
DNA 1: CAATCTGAATTCCGGTCTCCC
DNA 2: TGGTGGCTACGACGGGATT
B3: UUACUAG (DNA:RNA)
RNA: B1 RNA with A26U, G27A, G28C, C29U, C30A, C31G
DNA 1: CAATCTGAATTCCGGTCTCCC
DNA 2: TGGTGGCTACGACGGGATT
B4: CUUGAUG (DNA:RNA)
RNA: B1 RNA with U25C, A26U, G27U, C29A, C30U, C31G
DNA 1: CAATCTGAATTCCGGTCTCCC
DNA 2: TGGTGGCTACGACGGGATT
B5: AUUUGGC (DNA:RNA)
RNA: B1 RNA with U25A, A26U, G27U, G28U, C29G, C30G
DNA 1: CAATCTGAATTCCGGTCTCCC
DNA 2: TGGTGGCTACGACGGGATT
B6: UAAAUGA (DNA:RNA)
RNA: B1 RNA with G27A, G28A, C29U, C30G, C31A
DNA 1: CAATCTGAATTCCGGTCTCCC
DNA 2: TGGTGGCTACGACGGGATT
B7: AACCAUC (DNA:RNA)
RNA: B1 RNA with U25A, G27C, G28C, C29A, C30U
DNA 1: CAATCTGAATTCCGGTCTCCC
DNA 2: TGGTGGCTACGACGGGATT
B8: UGAACAC (DNA:RNA)
RNA: B1 RNA with A26G, G27A, G28A, C30A
DNA 1: CAATCTGAATTCCGGTCTCCC
DNA 2: TGGTGGCTACGACGGGATT
B9: ACCCAAU (DNA:RNA)
RNA: GGGAGACCGGAAUUCAGAUUGUCCACCCAAUUUAAAUCCCGUCGUAGCCACCA
DNA 1: CAATCTGAATTCCGGTCTCCC
DNA 2: TGGTGGCTACGACGGGATT
B10: CAGGCGC (DNA:RNA)
RNA: B1 RNA with U25C, C30G
DNA 1: CAATCTGAATTCCGGTCTCCC
DNA 2: TGGTGGCTACGACGGGATT
B11: AUCCAUA (DNA:RNA)
RNA: B9 RNA with C26U, A30U, U31A
DNA 1: CAATCTGAATTCCGGTCTCCC
DNA 2: TGGTGGCTACGACGGGATT
B12: AACAUAC (DNA:RNA)
RNA: B9 RNA with C26A, C28A, A29U, U31C
DNA 1: CAATCTGAATTCCGGTCTCCC
DNA 2: TGGTGGCTACGACGGGATT
B13: CAUUUGA (DNA:RNA)
RNA: B1 RNA with U25C, G27U, G28U, C29U, C30G, C31A
DNA 1: CAATCTGAATTCCGGTCTCCC
DNA 2: TGGTGGCTACGACGGGATT
B14: CGCCCUG (DNA:RNA)
RNA: B9 RNA with A25C, C26G, A29C, A30U, U31G
DNA 1: CAATCTGAATTCCGGTCTCCC
DNA 2: TGGTGGCTACGACGGGATT
B15: GUCAGCG (DNA:RNA)
RNA: B9 RNA with A25G, C26U, C28A, A29G, A30C, U31G
DNA 1: CAATCTGAATTCCGGTCTCCC
DNA 2: TGGTGGCTACGACGGGATT
B16: UUCUCAA (DNA:RNA)
RNA: B9 RNA with A25U, C26U, C28U, A29C, U31A
DNA 1: CAATCTGAATTCCGGTCTCCC
DNA 2: TGGTGGCTACGACGGGATT
B17: CGUGUUC (DNA:RNA)
RNA: B1 RNA with U25C, A26G, G27U, C29U, C30U
DNA 1: CAATCTGAATTCCGGTCTCCC
DNA 2: TGGTGGCTACGACGGGATT
B18: AGAAUCG (DNA:RNA)
RNA: B9 RNA with C26G, C27A, C28A, A29U, A30C, U31G
DNA 1: CAATCTGAATTCCGGTCTCCC
DNA 2: TGGTGGCTACGACGGGATT
B19: GAACCGG (DNA:RNA)
RNA: B1 RNA with U25G, G27A, G28C, C30G, C31G
DNA 1: CAATCTGAATTCCGGTCTCCC
DNA 2: TGGTGGCTACGACGGGATT
B20: GUCGCGU (DNA:RNA)
RNA: B9 RNA with A25G, C26U, C28G, A29C, A30G
DNA 1: CAATCTGAATTCCGGTCTCCC
DNA 2: TGGTGGCTACGACGGGATT
B21: GGUCCAU (DNA:RNA)
RNA: B9 RNA with A25G, C26G, C27U, A29C
DNA 1: CAATCTGAATTCCGGTCTCCC
DNA 2: TGGTGGCTACGACGGGATT
B22: CGGUACG (DNA:RNA)
RNA: B1 RNA with U25C, A26G, G28U, C29A, C31G
DNA 1: CAATCTGAATTCCGGTCTCCC
DNA 2: TGGTGGCTACGACGGGATT
B23: GGGACUC (DNA:RNA)
RNA: B1 RNA with U25G, A26G, G28A, C30U
DNA 1: CAATCTGAATTCCGGTCTCCC
DNA 2: TGGTGGCTACGACGGGATT
B24: GACCUCG (DNA:RNA)
RNA: B9 RNA with A25G, C26A, A29U, A30C, U31G
DNA 1: CAATCTGAATTCCGGTCTCCC
DNA 2: TGGTGGCTACGACGGGATT
B25: UUCCGCA (DNA:RNA)
RNA: B9 RNA with A25U, C26U, A29G, A30C, U31A
DNA 1: CAATCTGAATTCCGGTCTCCC
DNA 2: TGGTGGCTACGACGGGATT
B26: GGUUGCG (DNA:RNA)
RNA: B1 RNA with U25G, A26G, G27U, G28U, C29G, C31G
DNA 1: CAATCTGAATTCCGGTCTCCC
DNA 2: TGGTGGCTACGACGGGATT
B27: AUUUUGC (DNA:RNA)
RNA: B9 RNA with C26U, C27U, C28U, A29U, A30G, U31C
DNA 1: CAATCTGAATTCCGGTCTCCC
DNA 2: TGGTGGCTACGACGGGATT
B28: UGACUUC (DNA:RNA)
RNA: B1 RNA with A26G, G27A, G28C, C29U, C30U
DNA 1: CAATCTGAATTCCGGTCTCCC
DNA 2: TGGTGGCTACGACGGGATT
B29: UACAGAC (DNA:RNA)
RNA: B1 RNA with G27C, G28A, C29G, C30A
DNA 1: CAATCTGAATTCCGGTCTCCC
DNA 2: TGGTGGCTACGACGGGATT
B30: GUAUGAC (DNA:RNA)
RNA: B9 RNA with A25G, C26U, C27A, C28U, A29G, U31C
DNA 1: CAATCTGAATTCCGGTCTCCC
DNA 2: TGGTGGCTACGACGGGATT
B31: CGCCAAG (DNA:RNA)
RNA: B9 RNA with A25C, C26G, U31G
DNA 1: CAATCTGAATTCCGGTCTCCC
DNA 2: TGGTGGCTACGACGGGATT

target: T1, RBFOX1 RRM RbFoxmut (Fox-RRM*); assay: EMSA; HiTS-Eq, 1 nM pool, 10 min; buffer printed only for the single-RNA assays: 10 mM Tris pH 7.5, 150 mM NaCl, 3.4 mM EDTA, 0.001% NP-40, 30 C; conditions: tags: His6 N-terminal (pET28a); label: 5' 32P
Summary of the method: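 Relative association constants, normalised to the cognate motif, were derived by comparing read counts of each RNA species with those of the control reaction. The RNA sequenced was the free fraction, separated by 8% native PAGE after a 10 min equilibration in 50 µL of 1 nM 5′-radiolabelled RNA (7 randomized nucleotides) with increasing concentrations of purified wild-type or mutant RbFox RRM.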

| Binder | binding signal |
| --- | --- |
| B1 | 0.0552 KA relative to UGCAUGU |
| B2 | 0.142 KA relative to UGCAUGU |
| B3 | 0.1 KA relative to UGCAUGU |
| B4 | 0.144 KA relative to UGCAUGU |
| B5 | 0.115 KA relative to UGCAUGU |
| B6 | 0.0756 KA relative to UGCAUGU |
| B7 | 0.041 KA relative to UGCAUGU |
| B8 | 0.1 KA relative to UGCAUGU |
| B9 | 0.0571 KA relative to UGCAUGU |
| B10 | 0.0775 KA relative to UGCAUGU |
| B11 | 0.117 KA relative to UGCAUGU |
| B12 | 0.0881 KA relative to UGCAUGU |
| B13 | 0.0927 KA relative to UGCAUGU |
| B14 | 0.0947 KA relative to UGCAUGU |
| B15 | 0.138 KA relative to UGCAUGU |
| B16 | 0.0802 KA relative to UGCAUGU |

| Binder | binding signal |
| --- | --- |
| B17 | 0.107 KA relative to UGCAUGU |
| B18 | 0.28 KA relative to UGCAUGU |
| B19 | 0.0476 KA relative to UGCAUGU |
| B20 | 0.142 KA relative to UGCAUGU |
| B21 | 0.0753 KA relative to UGCAUGU |
| B22 | 0.24 KA relative to UGCAUGU |
| B23 | 0.111 KA relative to UGCAUGU |
| B24 | 0.101 KA relative to UGCAUGU |
| B25 | 0.1 KA relative to UGCAUGU |
| B26 | 0.178 KA relative to UGCAUGU |
| B27 | 0.119 KA relative to UGCAUGU |
| B28 | 0.0822 KA relative to UGCAUGU |
| B29 | 0.0549 KA relative to UGCAUGU |
| B30 | 0.219 KA relative to UGCAUGU |
| B31 | 0.0888 KA relative to UGCAUGU |
